Assay results reported in a collection of fitness landscapes (doi:10.1016/j.celrep.2020.107928).
The full ranking holds about 81,000 sequences; the median of “one-hybrid fitness for binding parS DNA” is about -0.17, and the highest 2% start at about 0.51. This is one part of the list.

B1: Caulobacter ParB omega fusion; a variant is named by its letters at X, in order, B8GW30 (parent)
chain: MESVVVGEPGMSEGRRGLGRGLSALLGEVDAAPAQAPGEQLGGSREAPIEILQRNPDQPRRTFREEDLEDLSNSIREKGVLQPILVRPSPDTAGEYQIVAGERAWRAAQRAGLKTVPIMVRELDDLAVLEIGIIENVQRADLNVLEEALSYKVLMEKFERTQENIAQTIGKSXSHVANXMRLLXLPDEVQSYLVSGELTAXHARAIAAAADPVALAKQIIEGGLSVRETEALARKAPNLSAGKSKGGRPPRVKDTDTQALESDLSSVLGLDVSIDHRGSTGTLTITYATLEQLDDLCNRLTRGI

Variants of: B1
Assay: one-hybrid fitness for binding parS DNA (scaled: cognate 1, non-cognate 0); higher = stronger binding
Details: with parS DNA site
Method in brief: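 Fitness here means the log change in variant-to-wild-type read ratio between plasmids sequenced before and after selection. That scale was set so cognate equals 1 and non-cognate equals 0. The selection was a bacterial one-hybrid screen of Caulobacter ParB libraries, four specificity codons randomised, in E. coli USO carrying a HIS3 reporter with the site 19 bp from the promoter, grown 48 hours at 37°C on M9-minus-histidine with 0.1 mM IPTG and 5 mM 3-AT.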

one-hybrid fitness for binding parS DNA, ≤ 0.2:
IALC
VWDT
RCKD
STGE
ASVW
CADI
WGSS
GIDI
KFAR
HHKC
MWRG
SNTE
CSGF
FTTG
SDTR
SSDD
SGKY
YKTS
HVMT
TDKE
CTTM
NVAA
DLFA
KQSM
ENAS
TQET
QFAF
FLEV
RDTV
FSPS
VHTG
NLQC
GHSF
IEYT
IMVC
QYSI
YEHV
RCLL
NHET
PRDL
TRVF
LLGN
LSHY
SFKW
TGRN
RTGH
NQKD
WHHC
AKAN
TCHS
FGCC
MKGG
SLSM
VLMM
PLED
QNTL
EQSR
KRCD
SCYL
DADY
KFNT
WMGC
AHSF
QLAH
AFLC
SHVE
LPDC
SDYK
IEPG
APYR
QSET
PVND
SCVN
PRTG
HWLH
FCYM
IICR
WFVS
KSCQ
SNKR
AGRP
WTVL
FMKS
SDMA
GEVS
VHFR
PDCE
QLEC
RKEL
EPDT
VTAW
LGTN
GAIS
WGKT
CHPW
AYFI
ADPK
EMVP
NKTT
KTDF
LNVS
CTRN
SKSA
TLCQ
HRWY
CRCD
QPRA
CCGC
LVNG
NNLK
DALM
HWHS
RQVF
MTVT
VTTS
NFGG
HWGS
DCRG
WTTT
QMSQ
ITCS
RRQD
RCTP
TCCT
QLNR
LNCV
DRAV
VCVF
TKPM
STHE
VKGF
QLVR
FQPR
PSNK
DLQG
MLLC
QALL
TFRC
DDPT
NVQL
HRPE
TVRR
GPSN
FKPA
YAYV
DANW
AGGN
KFRS
HRQL
KASI
MWLG
YPKR
WSSG
AVTE
WVIC
VMAG
NFGS
KMWF
DFWV
QCKM
SALA
IPTF
AQCG
VRHT
PWDE
VLDV
VVRN
MRIT
AWEG
ALCL
WYNW
GHIS
GQYF
DMDC
DMSC
FCRT
WHRR
VGPS
RDKL
YLVK
LANE
TSVW
CTFC
TQPW
KLRN
EHLW
ILGS
DVWT
STDR
SCER
HVKV
VRLS
NIII
HCPC
WAGN
CPIL
CLCV
TTLC
ATHM
NNNA
AITL
SPGL
HSNT
YHRV
QQFM
SPEG
TQFS
PACN
IPWR
PIEA
TWVS
GEVF
RFGR
HFAM
NASS
FKKT
MNAW
HMHM
LIWY
DESS
MYGC
QTET
TRWV
DDPE
EWPD
TPAE
KVWS
APGW
VMIS
LDSK
YCIC
GIPD
SQEI
QLAV
KPQS
TACS
LCPE
WNIS
NGRG
SFLF
NMYG
ADKA
SKWR
QPTF
PVDL
VMPR
ATIG
VQKH
ARFY
RGKQ
IELS
EINP
KHSC
WSPT
NKNS
SLNL
GNKT
RKCR
IVWV
QKKV
SVLW
LCGD
NKRL
SMLD
KRWV
MVCR
WNPR
PALG
QGHE
MTIP
DTLG
PEPL
DKCS
YYWR
MSWC
QHYD
VVGG
QYRR
PWNH
IAAT
GQTT
AHTG
KKPL
PRNQ
WKPT
NLAS
YAFA
TKMA
AKIG
QWAE
QPTT
QACL
QQAY
RLTL
PKVS
RTDK
SLNN

one-hybrid fitness for binding parS DNA, 0.946:
RMHT

one-hybrid fitness for binding parS DNA, 0.927:
RHVS

one-hybrid fitness for binding parS DNA, 0.238:
WLQM

one-hybrid fitness for binding parS DNA, 0.337:
FHAE

one-hybrid fitness for binding parS DNA, 0.407:
RYDN

one-hybrid fitness for binding parS DNA, 0.297:
RTSM

one-hybrid fitness for binding parS DNA, 0.269:
RQKH

one-hybrid fitness for binding parS DNA, 0.241:
HRFS

one-hybrid fitness for binding parS DNA, 0.227:
VPAH
